Data from a collection of fitness landscapes (doi:10.1016/j.celrep.2020.107928).
The full ranking holds about 81,000 sequences; the median of “one-hybrid fitness for binding NBS DNA” is about -0.1, and the highest 2% start at about 0.36. This is one part of the list.

B1: Caulobacter ParB omega fusion; a variant is named by its letters at X, in order, B8GW30 (parent)
chain: MESVVVGEPGMSEGRRGLGRGLSALLGEVDAAPAQAPGEQLGGSREAPIEILQRNPDQPRRTFREEDLEDLSNSIREKGVLQPILVRPSPDTAGEYQIVAGERAWRAAQRAGLKTVPIMVRELDDLAVLEIGIIENVQRADLNVLEEALSYKVLMEKFERTQENIAQTIGKSXSHVANXMRLLXLPDEVQSYLVSGELTAXHARAIAAAADPVALAKQIIEGGLSVRETEALARKAPNLSAGKSKGGRPPRVKDTDTQALESDLSSVLGLDVSIDHRGSTGTLTITYATLEQLDDLCNRLTRGI

Variants of: B1
Experiment: one-hybrid fitness for binding NBS DNA (the Noc-binding site; scaled: cognate 1, non-cognate 0); higher = stronger binding
Details: with NBS DNA site
In short: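 Selection: bacterial one-hybrid in E. coli USO, HIS3 reporter with the site 19 bp from the promoter, 48 hours at 37°C on M9-minus-histidine plus 0.1 mM IPTG and 5 mM 3-AT. Libraries were Caulobacter ParB with four randomised specificity codons, sequenced on Illumina before and after selection. Fitness is the rescaled log change in variant-to-wild-type read ratio, anchored to the cognate and non-cognate sites.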

Variant | one-hybrid fitness for binding NBS DNA
YPIW | ≤ 0.2
DEPI | ≤ 0.2
PQNT | ≤ 0.2
TESS | ≤ 0.2
RVQT | 0.438
PTIP | ≤ 0.2
QHQY | ≤ 0.2
SYEC | ≤ 0.2
SHDC | ≤ 0.2
LNAY | ≤ 0.2
HYLD | ≤ 0.2
KMLF | ≤ 0.2
TTKP | ≤ 0.2
DWSS | ≤ 0.2
HQAP | ≤ 0.2
KVTN | ≤ 0.2
GAQG | ≤ 0.2
SLLQ | ≤ 0.2
QCKV | 0.479
PSWE | ≤ 0.2
ETYG | ≤ 0.2
TINS | ≤ 0.2
TCHN | ≤ 0.2
CIEG | ≤ 0.2

Variant | one-hybrid fitness for binding NBS DNA
MVLG | ≤ 0.2
IDSV | ≤ 0.2
MHWG | ≤ 0.2
SHRR | ≤ 0.2
APTA | ≤ 0.2
SGPG | ≤ 0.2
FVYW | ≤ 0.2
HGNI | ≤ 0.2
DFGA | ≤ 0.2
DPVF | ≤ 0.2
SMPR | ≤ 0.2
WVWF | ≤ 0.2
RFYV | ≤ 0.2
FIHV | ≤ 0.2
KKQR | 0.281
VLQL | ≤ 0.2
IPAY | ≤ 0.2
RKHG | ≤ 0.2
LSVN | ≤ 0.2
KEWT | ≤ 0.2
TRKY | 0.278
AHPG | ≤ 0.2
PKCK | ≤ 0.2
NTIY | ≤ 0.2

Variant | one-hybrid fitness for binding NBS DNA
AWKR | ≤ 0.2
ESQM | ≤ 0.2
RQQS | 0.429
QYLG | ≤ 0.2
HDAR | ≤ 0.2
KYSA | ≤ 0.2
TCPY | ≤ 0.2
GYPS | ≤ 0.2
KRMI | ≤ 0.2
VFPC | ≤ 0.2
SLSI | ≤ 0.2
DVDS | ≤ 0.2
TQSC | ≤ 0.2
TPKP | ≤ 0.2
SYVT | ≤ 0.2
RMGT | 0.432
VLSV | ≤ 0.2
CNAS | ≤ 0.2
KSQS | ≤ 0.2
PFWV | ≤ 0.2
EFPM | ≤ 0.2
QNKL | ≤ 0.2
TSKD | ≤ 0.2
YRHG | ≤ 0.2

Variant | one-hybrid fitness for binding NBS DNA
QAWE | ≤ 0.2
GSVC | ≤ 0.2
RIYA | ≤ 0.2
PPSN | ≤ 0.2
PWQT | ≤ 0.2
PGAV | ≤ 0.2
LRIY | ≤ 0.2
FTSA | ≤ 0.2
MQSM | ≤ 0.2
SRVR | ≤ 0.2
QEYS | ≤ 0.2
FKVC | ≤ 0.2
RLCN | ≤ 0.2
MEGC | ≤ 0.2
ELTS | ≤ 0.2
KAWL | ≤ 0.2
HMSR | ≤ 0.2
KLWT | ≤ 0.2
ALSI | ≤ 0.2
ARSP | ≤ 0.2
NSPD | ≤ 0.2
APCL | ≤ 0.2
RYDW | ≤ 0.2
IYYS | ≤ 0.2

Variant | one-hybrid fitness for binding NBS DNA
AHSY | ≤ 0.2
NRPI | ≤ 0.2
CWMS | ≤ 0.2
QTRL | 0.406
TMLQ | ≤ 0.2
KDPN | ≤ 0.2
RHPF | ≤ 0.2
HDAT | ≤ 0.2
RTRM | 0.29
SYHF | ≤ 0.2
LQAV | ≤ 0.2
NHFP | ≤ 0.2
RRVI | ≤ 0.2
DCLG | ≤ 0.2
GPKE | ≤ 0.2
YLGT | ≤ 0.2
GPSR | ≤ 0.2
HIIF | ≤ 0.2
KSPV | ≤ 0.2
WHRV | ≤ 0.2
VFER | ≤ 0.2
LAYS | ≤ 0.2
ATNG | ≤ 0.2
PFRR | 0.22

Variant | one-hybrid fitness for binding NBS DNA
FDPS | ≤ 0.2
VMKA | ≤ 0.2
HREG | ≤ 0.2
QFNK | ≤ 0.2
FRAW | ≤ 0.2
PHER | ≤ 0.2
TTDP | ≤ 0.2
FFTE | ≤ 0.2
TQHM | ≤ 0.2
AVPP | ≤ 0.2
QHVY | ≤ 0.2
CAVK | ≤ 0.2
VWAL | ≤ 0.2
AAYR | ≤ 0.2
NVGM | ≤ 0.2
DRAG | ≤ 0.2
LVHI | ≤ 0.2
MEVG | ≤ 0.2
IRRW | ≤ 0.2
NSCS | ≤ 0.2
AIVR | ≤ 0.2
DTTL | 0.357
DNWS | ≤ 0.2
QDNH | ≤ 0.2

Variant | one-hybrid fitness for binding NBS DNA
GTLG | ≤ 0.2
IRYA | ≤ 0.2
ETLR | ≤ 0.2
HFGY | ≤ 0.2
LTVG | ≤ 0.2
CHCI | ≤ 0.2
PVCD | ≤ 0.2
CQKF | ≤ 0.2
PLHT | ≤ 0.2
MSNG | ≤ 0.2
TQLC | ≤ 0.2
GRFL | ≤ 0.2
NHIC | ≤ 0.2
QCAA | 0.393
EDLF | ≤ 0.2
TSPE | ≤ 0.2
GVAY | ≤ 0.2
FLVS | ≤ 0.2
VPAL | ≤ 0.2
VTNV | ≤ 0.2
CRGW | ≤ 0.2
INYR | ≤ 0.2
PQYS | ≤ 0.2
QCTQ | ≤ 0.2

Variant | one-hybrid fitness for binding NBS DNA
ILLN | ≤ 0.2
YPYA | ≤ 0.2
KVDT | ≤ 0.2
YIMS | ≤ 0.2
PYRW | ≤ 0.2
SLYG | ≤ 0.2
MDGS | ≤ 0.2
ARRF | ≤ 0.2
KKAY | ≤ 0.2
YGGR | ≤ 0.2
NRNY | ≤ 0.2
MDTG | ≤ 0.2
CKED | ≤ 0.2
CTKL | ≤ 0.2
GSTQ | ≤ 0.2
YEER | ≤ 0.2
DPNA | ≤ 0.2
PRHS | ≤ 0.2
WHAF | ≤ 0.2
KMTD | ≤ 0.2
THHN | ≤ 0.2
PMMR | ≤ 0.2
AIQC | ≤ 0.2
QTKN | 0.56

Variant | one-hybrid fitness for binding NBS DNA
CEQR | ≤ 0.2
LVLR | ≤ 0.2
LDNL | ≤ 0.2
YEAT | ≤ 0.2
SGWR | ≤ 0.2
WIRS | ≤ 0.2
YQSG | ≤ 0.2
GHTC | ≤ 0.2
VQYL | ≤ 0.2
TPMY | ≤ 0.2
MYDR | ≤ 0.2
TIAW | ≤ 0.2
PFNT | ≤ 0.2
SWAD | ≤ 0.2
AVTW | ≤ 0.2
RWSA | ≤ 0.2
SRCI | ≤ 0.2
YLIF | ≤ 0.2
PELK | ≤ 0.2
TNSM | ≤ 0.2
TGIL | ≤ 0.2
CRRI | ≤ 0.2
VRYA | ≤ 0.2
RMYD | ≤ 0.2

Variant | one-hybrid fitness for binding NBS DNA
YLMA | ≤ 0.2
ESGV | ≤ 0.2
TMKR | 0.261
QYWH | ≤ 0.2
ASNP | ≤ 0.2
QYER | 0.31
AWLA | ≤ 0.2
RQHF | ≤ 0.2
ELMI | ≤ 0.2
VVPW | ≤ 0.2
SCVQ | ≤ 0.2
GWDN | ≤ 0.2
FTGY | ≤ 0.2
QSLN | ≤ 0.2
EIRL | ≤ 0.2
SDKD | ≤ 0.2
QILL | ≤ 0.2
LCSD | ≤ 0.2
CGAQ | ≤ 0.2
NYKP | ≤ 0.2
KRCF | ≤ 0.2
YQNG | ≤ 0.2
TAVT | ≤ 0.2
REKC | ≤ 0.2

Variant | one-hybrid fitness for binding NBS DNA
AISD | ≤ 0.2
QRCA | 0.609
HWVQ | ≤ 0.2
HDAV | ≤ 0.2
QPIT | ≤ 0.2
AKCC | ≤ 0.2
HHDR | ≤ 0.2
LDTM | ≤ 0.2
VKFR | ≤ 0.2
IQRY | ≤ 0.2
NESL | ≤ 0.2
KNNG | ≤ 0.2
VQAC | ≤ 0.2
MHRW | ≤ 0.2
QQNK | ≤ 0.2
DFQS | ≤ 0.2
SHRK | ≤ 0.2
YRKR | 0.377
PATC | ≤ 0.2
VCPW | ≤ 0.2
PVAW | ≤ 0.2
LMMG | ≤ 0.2
PVMF | ≤ 0.2
QKHA | 0.28

Variant | one-hybrid fitness for binding NBS DNA
RRDQ | 0.241
CTTL | ≤ 0.2
NHNR | ≤ 0.2
QMYG | ≤ 0.2
QILP | ≤ 0.2
AGLR | ≤ 0.2
VPYT | ≤ 0.2
YSHC | ≤ 0.2
AYRK | ≤ 0.2
LTTA | ≤ 0.2
AEIR | ≤ 0.2
KMAG | ≤ 0.2
NAHP | ≤ 0.2
AQLF | ≤ 0.2
LCKG | ≤ 0.2
ACPI | ≤ 0.2
IQSG | ≤ 0.2
VISN | ≤ 0.2
CSES | ≤ 0.2
IAHV | ≤ 0.2
LFCC | ≤ 0.2
KRML | ≤ 0.2
QPDV | ≤ 0.2
PDQG | ≤ 0.2

Variant | one-hybrid fitness for binding NBS DNA
QDTG | ≤ 0.2
GAGV | ≤ 0.2
PKPH | ≤ 0.2
DMNM | ≤ 0.2
QANL | ≤ 0.2
QWDL | ≤ 0.2
YDHT | ≤ 0.2
GILR | ≤ 0.2
GPAS | ≤ 0.2
QHCK | ≤ 0.2
RPVT | ≤ 0.2
DFTR | ≤ 0.2
QDYG | ≤ 0.2
CNVT | ≤ 0.2
ETYY | ≤ 0.2
PWLC | ≤ 0.2
KENH | ≤ 0.2
CKHR | ≤ 0.2
